# About 5,700 (2.6%) of roughly 220,000 compounds were called active. Inconclusive results, whose numbers are uncertain, are shown with a selection of clear calls. Calls come from the whole dose curve; as a rule, active = well fitted inhibition curve with a large enough effect; inconclusive = small, poorly fitted or top-dose-only effect; inactive = no such curve, though single readings can be large or run the other way. A potency beside an inconclusive call is a rough fit, not a confirmed value.
# Target: Lysine-specific demethylase 5B (Homo sapiens) (UniProt Q9UGL1)
# Chain of UniProt Q9UGL1 (Q9UGL1 whole entry, looked up): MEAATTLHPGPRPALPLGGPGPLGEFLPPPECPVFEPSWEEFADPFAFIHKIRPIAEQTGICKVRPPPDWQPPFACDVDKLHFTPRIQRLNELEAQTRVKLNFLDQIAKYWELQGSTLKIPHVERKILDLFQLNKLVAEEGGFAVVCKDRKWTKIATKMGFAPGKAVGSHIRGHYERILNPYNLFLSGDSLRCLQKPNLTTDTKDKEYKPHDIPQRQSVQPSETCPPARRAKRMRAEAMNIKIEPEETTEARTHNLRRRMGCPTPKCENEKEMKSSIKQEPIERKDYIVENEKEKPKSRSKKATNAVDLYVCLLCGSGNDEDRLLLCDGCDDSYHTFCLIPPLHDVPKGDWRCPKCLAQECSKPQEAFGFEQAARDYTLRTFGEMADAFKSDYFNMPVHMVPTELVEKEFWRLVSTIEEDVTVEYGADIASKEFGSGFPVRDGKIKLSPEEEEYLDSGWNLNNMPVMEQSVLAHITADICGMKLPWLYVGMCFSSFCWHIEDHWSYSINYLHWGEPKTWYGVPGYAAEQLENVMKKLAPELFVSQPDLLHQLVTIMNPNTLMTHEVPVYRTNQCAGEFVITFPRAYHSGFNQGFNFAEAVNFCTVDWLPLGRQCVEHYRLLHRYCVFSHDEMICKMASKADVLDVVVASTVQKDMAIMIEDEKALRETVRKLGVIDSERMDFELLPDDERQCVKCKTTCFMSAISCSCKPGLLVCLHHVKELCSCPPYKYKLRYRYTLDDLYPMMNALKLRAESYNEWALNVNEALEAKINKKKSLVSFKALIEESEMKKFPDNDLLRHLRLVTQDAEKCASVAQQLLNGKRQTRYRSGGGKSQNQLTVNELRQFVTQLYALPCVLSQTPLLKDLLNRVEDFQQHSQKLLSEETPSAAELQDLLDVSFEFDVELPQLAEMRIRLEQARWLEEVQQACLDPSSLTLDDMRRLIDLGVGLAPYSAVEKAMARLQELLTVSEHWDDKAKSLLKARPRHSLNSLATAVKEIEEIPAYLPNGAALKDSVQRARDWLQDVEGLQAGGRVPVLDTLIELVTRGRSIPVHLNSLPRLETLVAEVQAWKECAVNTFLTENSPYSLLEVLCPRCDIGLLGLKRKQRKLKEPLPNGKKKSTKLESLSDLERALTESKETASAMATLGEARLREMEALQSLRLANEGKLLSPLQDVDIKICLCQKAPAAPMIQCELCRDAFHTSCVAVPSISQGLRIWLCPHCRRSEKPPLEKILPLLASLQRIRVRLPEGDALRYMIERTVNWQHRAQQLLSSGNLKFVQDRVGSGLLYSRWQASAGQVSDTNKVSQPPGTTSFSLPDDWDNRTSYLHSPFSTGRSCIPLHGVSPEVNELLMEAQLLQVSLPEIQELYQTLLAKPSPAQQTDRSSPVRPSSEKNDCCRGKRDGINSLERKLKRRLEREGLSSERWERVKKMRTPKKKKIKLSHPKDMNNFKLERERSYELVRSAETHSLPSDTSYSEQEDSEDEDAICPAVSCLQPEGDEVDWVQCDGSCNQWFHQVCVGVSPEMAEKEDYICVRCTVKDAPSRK
# Assay: Primary screen for KDM5B Histone Demethylases FDH-coupled qHTS; note: nearly all actives have a fitted effect of over 70% in size; for activity change, negative = inhibition: 0% is about no effect
# Details: FDH-coupled NADH fluorescence (FDH is formaldehyde dehydrogenase); activity change, negative = inhibition: at 57.7 µM (top of the series) unless noted
# Procedure, shortened: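 Compound dilutions met 200 nM (final) KDM5BΔAP for 10 min at room temperature before substrate addition. The substrate mix held 12.5 µM H3K4me3 with cofactors 25 µM α-ketoglutarate and 50 µM Fe²⁺. NADH signal gain over 30 min defined activity.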
# Potency is the fitted concentration of half-maximal effect; tags give direction and shape of the fitted curve.
Structure (SMILES),Potency,"activity change, negative = inhibition"
Cc1ccccc1-c1cnc2[nH]cc(CC(=O)Nc3ccccc3)c2c1,active: 35.5 µM,
Cc1cc(NC(=O)N(Cc2ccc(C)o2)C2CC2)no1,,inactive: 2.8%
CCc1noc(-c2cccn3c(CNC(=O)c4cccc(C)c4)nnc23)n1,active: 28.2 µM,
O=C(NCc1ccccc1)c1ccc(-c2cccs2)cc1,"inconclusive: 28.2 µM [inhibitor, partial curve, poor fit]",
Cc1nn(C)c(C)c1CCN(C)C(=O)C12CCCC=C1N(C1CCCC1)C(=O)CC2 (stereo unspecified),,inactive: 6.98%
COCCc1noc(CNC(=O)c2ccc(-c3ccccc3Cl)o2)n1,"inconclusive: 22.4 µM [inhibitor, partial curve, poor fit]",
CCc1cccc(-n2nnnc2N2CCC(C(=O)Nc3ccc(C)c(F)c3)CC2)c1,"inconclusive: 79.4 µM [inhibitor, partial curve]",
Cc1ccc(-c2ccc(CCC(=O)O)n2-c2ccc(C)c(Cl)c2)cc1,"inconclusive: 15.8 µM [inhibitor, partial curve, poor fit]",
COc1cccc(/C=N/n2c(C3CCCCC3)n[nH]c2=S)c1O,"inconclusive: 39.8 µM [inhibitor, single point]",
CCCCn1c(SCC(=O)c2cc(C)n(C3CC3)c2C)nc2cc(S(N)(=O)=O)ccc21,,inactive: 7.54%
Cc1ccccc1OCC(=O)N1CCc2c(nc3cc(-c4ccccc4Cl)[nH]n3c2=O)C1,,inactive: -29.8%
O=C(O)c1cc2cn(C3CCCC3)cc2s1,active: 15.8 µM,
COCC(C)Nc1nc(-c2ccsc2)nc2ccccc12 (stereo unspecified),,inactive: 7.86%
COc1ccc2c(c1OC)C(=O)OC2CC(=O)c1ccccc1 (stereo unspecified),"inconclusive: 17.8 µM [inhibitor, partial curve, poor fit]",
Cc1cn2nc(C(=O)NC3CCC(C)CC3)cc2c(N2CCCC2)n1 (stereo unspecified),active: 28.2 µM,
O=C(c1cc2cc(Br)ccc2oc1=O)N1CCCCCC1,,inactive: 3.73%
c1ccc(-c2nnc(-c3ccccn3)c(-c3ccccn3)n2)nc1,"inconclusive: 20 µM [inhibitor, partial curve, poor fit]",
O=C(Cn1c(-c2cccs2)cc2cc(Cl)ccc21)N1CCCCC1,"inconclusive: 35.5 µM [inhibitor, partial curve, poor fit]",
O=[S+]1([O-])NCC2(CCCN(CC3CC3)C2)Nc2ccccc21 (stereo unspecified),,inactive: -18% [at 86.2 µM]
O=C(COc1ccc2ccc(=O)oc2c1)NCCc1ccc(OC(F)F)cc1,"inconclusive: 11.2 µM [inhibitor, partial curve, poor fit]",
Cc1ccc(C)c(NC(=O)C(C)n2c(=O)cc(C(F)(F)F)c3c(C)nn(C)c32)c1 (stereo unspecified),"inconclusive: 15.8 µM [inhibitor, partial curve, poor fit]",
C=CCNc1oc(-c2ccco2)nc1S(=O)(=O)c1ccc2c(c1)OCCO2,,inactive: -19.3%
O=C(O)c1ccc(-c2cccc3ccccc23)s1,"inconclusive: 25.1 µM [inhibitor, partial curve, poor fit]",
COc1cc(OC)c(OC)cc1CN1CCc2nc(N3CCN(c4ncccn4)CC3)ncc2C1,"inconclusive: 44.7 µM [inhibitor, single point]",

Structure (SMILES),Potency,"activity change, negative = inhibition"
O=C(NCc1ccc(F)cc1)C1CCCN(C(=O)c2ccc3cc[nH]c3c2)C1 (stereo unspecified),,inactive: 34.7%
CCCc1noc(-c2cccn3c(CNC(=O)c4ccc(OC)cc4)nnc23)n1,"inconclusive: 17.8 µM [inhibitor, partial curve, poor fit]",
Cn1nnnc1C1CCCN(C(=O)C2CCCC2)C1 (stereo unspecified),active: 28.2 µM,
CC(C)CCNC(=O)c1cnc2c(c1)N(Cc1ccccc1)CCC2,"inconclusive: 39.8 µM [inhibitor, partial curve, poor fit]",
Cc1ccc2cc(CN(Cc3ccccc3)C(=O)c3ccco3)c(=O)[nH]c2c1,"inconclusive: 39.8 µM [inhibitor, partial curve, poor fit]",
O=C(Nc1ccc(Cl)nc1)c1ccn2nccc2c1,"inconclusive: 39.8 µM [inhibitor, partial curve, poor fit]",
CC(C)CN1C(=O)N2Cc3ccccc3C2CS1(=O)=O (stereo unspecified),,inactive: 12.8%
CCOC(=O)N1CCC(N2CCc3nc(-c4ccc(Cl)cc4)[nH]c3C2)C1 (stereo unspecified),active: 22.4 µM,
COc1ccc(OC)c(-c2nc(Nc3ccccc3C)sc2CC(=O)O)c1,"inconclusive: 35.5 µM [inhibitor, single point]",
COc1ccc(C2C(C(=O)Nc3ccccc3)=C(C)Nc3nc(-c4ccccc4)nn32)cc1OC (stereo unspecified),"inconclusive: 14.1 µM [inhibitor, partial curve, poor fit]",
COC(=O)c1cc(NC(=O)c2cc(C(C)(C)C)nn2Cc2cccc(C)c2)ccc1N1CCOCC1,"inconclusive: 25.1 µM [inhibitor, partial curve, poor fit]",
CNC(=O)[C@@H]1CN(Cc2cccc(OC(F)(F)F)c2)C[C@H]1CO,,inactive: -0.555%
CCn1c(C2CCCN(Cc3c(C(=O)O)[nH]c4ccc(C)cc34)C2)n[nH]c1=O (stereo unspecified),active: 28.2 µM,
O=C(NCc1ccnc2[nH]ccc12)c1ccc2ccccc2n1,"inconclusive: 39.8 µM [inhibitor, partial curve]",
Cc1ccc(CNc2ccc3nnc(C(C)C)n3n2)o1,"inconclusive: 39.8 µM [inhibitor, partial curve, poor fit]",
Cc1ccc2nc(NC(=O)C3CC(=O)N(c4n[nH]c5cccc(F)c45)C3)sc2c1 (stereo unspecified),,inactive: -22.7%
Cc1cc(C)cc(NC(=O)CC2CC3CCC2C3)c1 (stereo unspecified),,inactive: 4.38%
Cc1ccn2cc(-c3ccccc3)cc2c1,"inconclusive: 28.2 µM [inhibitor, single point]",
COc1ccc(NC(=O)c2oc3c(c2C)-c2nn(Cc4c(F)cccc4Cl)cc2CC3)c(OC)c1,"inconclusive: 56.2 µM [inhibitor, single point]",
CCOc1ccc(Nc2oc(/C=C/c3ccc(F)cc3)nc2C#N)cc1,"inconclusive: 31.6 µM [inhibitor, partial curve, poor fit]",
NC1=NC(c2cccc(Oc3ccccc3)c2)n2c(nc3ccccc32)N1 (stereo unspecified),,inactive: -15.4%
O=C(NC1CC1)c1ccc(Sc2ccccn2)cc1,,inactive: 19%
Cc1noc(C)c1CCC(=O)NC1CCCc2c1[nH]c1ccccc21 (stereo unspecified),active: 28.2 µM,
COc1cccc(CN2CCC(Cc3ncc(C)n3CC3CC3)C2)c1OC (stereo unspecified),"inconclusive: 25.1 µM [inhibitor, partial curve]",

Structure (SMILES),Potency,"activity change, negative = inhibition"
CCCCC(=O)Nc1cccc(-c2nc3cc(C)ccc3o2)c1,,inactive: -5.25%
Cc1cc(/C=C/C(=O)c2ccc(F)cc2)cc(C)c1O,"inconclusive: 22.4 µM [inhibitor, single point]",
Fc1ccc(-c2csc(SCc3ccccc3F)n2)cc1,,inactive: 8.56%
COc1ccc([C@@H]2CN(C(=O)CN3C(=O)CNC3=O)C[C@H]2NC(C)=O)cc1,"inconclusive: 12.6 µM [inhibitor, single point]",
CN(C)c1cccc(C(=O)OCC(=O)N2c3ccccc3Sc3ccccc32)c1,"inconclusive: 31.6 µM [inhibitor, partial curve, poor fit]",
O=C(Cc1scnc1-c1cccs1)NCc1ccccc1F,,inactive: 6.41%
CN(C)c1ccc(NC(=O)c2ccc[n+]([O-])c2)cn1,"inconclusive: 15.8 µM [inhibitor, partial curve, poor fit]",
COc1ccc(-c2cc(C(=O)NCCCOC(C)C)c3cc(Br)ccc3n2)cc1,,inactive: 11.9%
COCc1cc(C)nc2sc3c(=O)n(-c4cc(C)ccc4C)nnc3c12,"inconclusive: 28.2 µM [inhibitor, partial curve, poor fit]",
CCOC(=O)c1ccccc1NC(=O)N1CCN2CCCCC2C1 (stereo unspecified),"inconclusive: 50.1 µM [inhibitor, single point]",
O=[N+]([O-])c1cc(S(=O)(=O)Nc2ccc(Cl)cc2)ccc1N/N=C/c1ccsc1,,inactive: 22.3%
COc1ccc(-c2cc(C(C)=O)c(C)n2CCC(=O)Nc2cc(C)ccc2OC)cc1,"inconclusive: 22.4 µM [inhibitor, single point]",
O=c1c2ccccc2n(Cc2cccc(Cl)c2)c(=O)n1CCc1ccccc1,"inconclusive: 39.8 µM [inhibitor, single point]",
O=C(c1ccccc1)N1CCC2(CC1)C(=O)Nc1ccccc12,,inactive: -3.35% [at 149 µM]
CCOC(=O)c1cc(OC(=O)c2cccc(C)c2)n(-c2ccccc2)n1,"inconclusive: 39.8 µM [inhibitor, single point]",
Cc1ccc2c(C)nc(N/C(N)=N/S(=O)(=O)c3ccccc3)nc2c1,"inconclusive: 28.2 µM [inhibitor, partial curve, poor fit]",
CNS(=O)(=O)c1cn(CC(=O)Nc2ccc(OC)c(Cl)c2)cc1S(=O)(=O)NC,,inconclusive: -35.7% [inhibitor]
Cc1ccc(C(=O)N2CCN(c3nc4ncccc4o3)CC2)cc1,"inconclusive: 17.8 µM [inhibitor, partial curve, poor fit]",
COc1ccc(N(C(=O)c2ccc(S(=O)(=O)N3CCCCC3)cc2)C2C=CS(=O)(=O)C2)cc1 (stereo unspecified),"inconclusive: 35.5 µM [inhibitor, single point]",
Cc1cc(F)ccc1Nc1nc2ccccc2n2nnnc12,"inconclusive: 31.6 µM [inhibitor, partial curve, poor fit]",
CC(C)C(Nc1ccc([N+](=O)[O-])cn1)c1ccc(Cl)cc1 (stereo unspecified),,inactive: -3.31%
CC(=O)N1CCCC(c2nnc3n2CCNC3)C1 (stereo unspecified),active: 79.4 µM,
CC(CNC(=O)Cn1ncc2c3ccccc3n(Cc3cccc(Cl)c3)c2c1=O)c1ccccc1 (stereo unspecified),"inconclusive: 31.6 µM [inhibitor, single point]",
